From paper PMC5802837, “Lymphocyte-specific protein 1 regulates mechanosensory oscillation of podosomes and actin isoform-based actomyosin symmetry breaking” (Nature Communications, 2018) come the findings set out here.

The chains behind the UniProt entries cited, without tags or fusion partners.
UniProt P35579: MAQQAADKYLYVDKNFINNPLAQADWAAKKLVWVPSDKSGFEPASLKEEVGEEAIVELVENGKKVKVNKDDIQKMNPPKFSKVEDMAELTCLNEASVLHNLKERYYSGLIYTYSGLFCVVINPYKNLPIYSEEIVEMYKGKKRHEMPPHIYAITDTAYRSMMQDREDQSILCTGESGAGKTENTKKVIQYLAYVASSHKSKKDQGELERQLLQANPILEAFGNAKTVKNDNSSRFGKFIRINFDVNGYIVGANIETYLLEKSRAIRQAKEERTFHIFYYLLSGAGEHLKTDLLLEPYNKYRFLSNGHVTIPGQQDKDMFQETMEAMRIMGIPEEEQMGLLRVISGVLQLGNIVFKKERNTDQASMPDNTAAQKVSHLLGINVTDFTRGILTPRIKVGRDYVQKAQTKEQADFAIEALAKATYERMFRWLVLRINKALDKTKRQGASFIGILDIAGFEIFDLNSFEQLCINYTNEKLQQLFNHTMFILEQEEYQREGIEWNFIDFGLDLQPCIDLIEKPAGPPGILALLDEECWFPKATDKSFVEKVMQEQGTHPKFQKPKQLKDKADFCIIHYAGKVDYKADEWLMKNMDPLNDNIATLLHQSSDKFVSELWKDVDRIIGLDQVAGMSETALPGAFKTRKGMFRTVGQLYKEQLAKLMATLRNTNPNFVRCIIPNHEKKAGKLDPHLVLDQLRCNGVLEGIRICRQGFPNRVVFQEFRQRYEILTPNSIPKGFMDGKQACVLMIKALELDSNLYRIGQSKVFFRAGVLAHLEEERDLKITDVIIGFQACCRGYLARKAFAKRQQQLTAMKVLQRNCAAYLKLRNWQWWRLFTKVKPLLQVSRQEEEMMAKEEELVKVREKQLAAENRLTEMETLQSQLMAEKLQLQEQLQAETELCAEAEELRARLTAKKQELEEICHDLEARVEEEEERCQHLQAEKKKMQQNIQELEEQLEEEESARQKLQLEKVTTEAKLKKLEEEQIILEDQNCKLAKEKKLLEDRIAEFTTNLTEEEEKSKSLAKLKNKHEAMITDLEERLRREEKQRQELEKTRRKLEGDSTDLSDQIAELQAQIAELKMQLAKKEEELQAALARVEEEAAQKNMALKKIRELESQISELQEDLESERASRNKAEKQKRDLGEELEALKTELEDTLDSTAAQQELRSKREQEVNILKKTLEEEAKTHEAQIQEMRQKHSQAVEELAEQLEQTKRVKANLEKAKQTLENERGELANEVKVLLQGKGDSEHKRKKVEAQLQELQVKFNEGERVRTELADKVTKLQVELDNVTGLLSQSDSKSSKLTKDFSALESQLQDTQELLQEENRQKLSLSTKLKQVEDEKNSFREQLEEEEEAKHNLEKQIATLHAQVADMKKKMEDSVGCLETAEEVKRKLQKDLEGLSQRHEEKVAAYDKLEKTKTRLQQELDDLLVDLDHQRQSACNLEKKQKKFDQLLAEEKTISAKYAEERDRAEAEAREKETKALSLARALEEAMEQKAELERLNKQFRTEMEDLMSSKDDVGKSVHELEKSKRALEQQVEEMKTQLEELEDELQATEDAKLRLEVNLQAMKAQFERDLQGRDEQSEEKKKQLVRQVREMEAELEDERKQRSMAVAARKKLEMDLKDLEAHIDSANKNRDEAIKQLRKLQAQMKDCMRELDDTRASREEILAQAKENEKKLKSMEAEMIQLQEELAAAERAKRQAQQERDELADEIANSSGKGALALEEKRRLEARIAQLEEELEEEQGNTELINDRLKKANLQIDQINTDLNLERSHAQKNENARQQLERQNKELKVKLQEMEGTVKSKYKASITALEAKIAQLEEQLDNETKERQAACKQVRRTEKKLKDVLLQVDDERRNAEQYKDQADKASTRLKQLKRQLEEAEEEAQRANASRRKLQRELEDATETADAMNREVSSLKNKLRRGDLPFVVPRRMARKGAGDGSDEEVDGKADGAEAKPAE
UniProt O75116: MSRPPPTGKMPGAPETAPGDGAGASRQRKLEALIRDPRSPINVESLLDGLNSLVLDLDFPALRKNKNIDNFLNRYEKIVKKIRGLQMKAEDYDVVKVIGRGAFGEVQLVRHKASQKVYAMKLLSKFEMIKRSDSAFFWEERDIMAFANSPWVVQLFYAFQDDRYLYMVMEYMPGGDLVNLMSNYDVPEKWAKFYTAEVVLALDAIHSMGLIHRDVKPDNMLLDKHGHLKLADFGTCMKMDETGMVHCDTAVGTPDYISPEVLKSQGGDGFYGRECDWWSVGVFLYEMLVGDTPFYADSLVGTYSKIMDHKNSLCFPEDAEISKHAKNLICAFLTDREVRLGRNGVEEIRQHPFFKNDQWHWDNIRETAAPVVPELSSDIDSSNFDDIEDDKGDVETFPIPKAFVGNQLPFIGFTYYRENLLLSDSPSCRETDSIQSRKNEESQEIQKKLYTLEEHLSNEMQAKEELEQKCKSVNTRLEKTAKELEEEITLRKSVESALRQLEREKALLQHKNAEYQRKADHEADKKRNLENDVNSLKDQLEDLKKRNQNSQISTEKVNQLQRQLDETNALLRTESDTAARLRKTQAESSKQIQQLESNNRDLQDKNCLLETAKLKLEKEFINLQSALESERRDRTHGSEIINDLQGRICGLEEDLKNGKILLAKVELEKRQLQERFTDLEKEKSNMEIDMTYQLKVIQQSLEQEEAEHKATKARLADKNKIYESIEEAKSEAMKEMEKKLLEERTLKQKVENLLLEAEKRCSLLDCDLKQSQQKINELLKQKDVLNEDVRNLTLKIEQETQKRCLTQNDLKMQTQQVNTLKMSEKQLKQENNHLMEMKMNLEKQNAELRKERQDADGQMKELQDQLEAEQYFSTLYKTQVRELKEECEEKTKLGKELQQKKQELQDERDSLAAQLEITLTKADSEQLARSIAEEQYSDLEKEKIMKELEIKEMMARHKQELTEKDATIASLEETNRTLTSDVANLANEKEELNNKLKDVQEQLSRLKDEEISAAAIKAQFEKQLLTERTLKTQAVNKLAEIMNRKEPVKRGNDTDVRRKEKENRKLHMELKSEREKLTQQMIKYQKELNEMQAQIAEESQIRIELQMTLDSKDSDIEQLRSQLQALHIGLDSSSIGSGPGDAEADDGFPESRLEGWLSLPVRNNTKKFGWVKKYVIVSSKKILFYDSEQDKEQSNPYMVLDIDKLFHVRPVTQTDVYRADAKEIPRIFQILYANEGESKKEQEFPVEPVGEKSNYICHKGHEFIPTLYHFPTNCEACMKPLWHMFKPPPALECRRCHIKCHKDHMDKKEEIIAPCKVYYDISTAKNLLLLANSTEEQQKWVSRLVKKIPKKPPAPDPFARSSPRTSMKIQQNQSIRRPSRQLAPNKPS
UniProt P61586: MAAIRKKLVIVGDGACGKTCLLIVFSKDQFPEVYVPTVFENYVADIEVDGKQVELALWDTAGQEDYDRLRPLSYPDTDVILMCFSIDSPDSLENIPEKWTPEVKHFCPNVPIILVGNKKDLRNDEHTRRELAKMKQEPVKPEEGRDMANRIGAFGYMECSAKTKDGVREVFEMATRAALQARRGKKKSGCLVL
UniProt Q15746: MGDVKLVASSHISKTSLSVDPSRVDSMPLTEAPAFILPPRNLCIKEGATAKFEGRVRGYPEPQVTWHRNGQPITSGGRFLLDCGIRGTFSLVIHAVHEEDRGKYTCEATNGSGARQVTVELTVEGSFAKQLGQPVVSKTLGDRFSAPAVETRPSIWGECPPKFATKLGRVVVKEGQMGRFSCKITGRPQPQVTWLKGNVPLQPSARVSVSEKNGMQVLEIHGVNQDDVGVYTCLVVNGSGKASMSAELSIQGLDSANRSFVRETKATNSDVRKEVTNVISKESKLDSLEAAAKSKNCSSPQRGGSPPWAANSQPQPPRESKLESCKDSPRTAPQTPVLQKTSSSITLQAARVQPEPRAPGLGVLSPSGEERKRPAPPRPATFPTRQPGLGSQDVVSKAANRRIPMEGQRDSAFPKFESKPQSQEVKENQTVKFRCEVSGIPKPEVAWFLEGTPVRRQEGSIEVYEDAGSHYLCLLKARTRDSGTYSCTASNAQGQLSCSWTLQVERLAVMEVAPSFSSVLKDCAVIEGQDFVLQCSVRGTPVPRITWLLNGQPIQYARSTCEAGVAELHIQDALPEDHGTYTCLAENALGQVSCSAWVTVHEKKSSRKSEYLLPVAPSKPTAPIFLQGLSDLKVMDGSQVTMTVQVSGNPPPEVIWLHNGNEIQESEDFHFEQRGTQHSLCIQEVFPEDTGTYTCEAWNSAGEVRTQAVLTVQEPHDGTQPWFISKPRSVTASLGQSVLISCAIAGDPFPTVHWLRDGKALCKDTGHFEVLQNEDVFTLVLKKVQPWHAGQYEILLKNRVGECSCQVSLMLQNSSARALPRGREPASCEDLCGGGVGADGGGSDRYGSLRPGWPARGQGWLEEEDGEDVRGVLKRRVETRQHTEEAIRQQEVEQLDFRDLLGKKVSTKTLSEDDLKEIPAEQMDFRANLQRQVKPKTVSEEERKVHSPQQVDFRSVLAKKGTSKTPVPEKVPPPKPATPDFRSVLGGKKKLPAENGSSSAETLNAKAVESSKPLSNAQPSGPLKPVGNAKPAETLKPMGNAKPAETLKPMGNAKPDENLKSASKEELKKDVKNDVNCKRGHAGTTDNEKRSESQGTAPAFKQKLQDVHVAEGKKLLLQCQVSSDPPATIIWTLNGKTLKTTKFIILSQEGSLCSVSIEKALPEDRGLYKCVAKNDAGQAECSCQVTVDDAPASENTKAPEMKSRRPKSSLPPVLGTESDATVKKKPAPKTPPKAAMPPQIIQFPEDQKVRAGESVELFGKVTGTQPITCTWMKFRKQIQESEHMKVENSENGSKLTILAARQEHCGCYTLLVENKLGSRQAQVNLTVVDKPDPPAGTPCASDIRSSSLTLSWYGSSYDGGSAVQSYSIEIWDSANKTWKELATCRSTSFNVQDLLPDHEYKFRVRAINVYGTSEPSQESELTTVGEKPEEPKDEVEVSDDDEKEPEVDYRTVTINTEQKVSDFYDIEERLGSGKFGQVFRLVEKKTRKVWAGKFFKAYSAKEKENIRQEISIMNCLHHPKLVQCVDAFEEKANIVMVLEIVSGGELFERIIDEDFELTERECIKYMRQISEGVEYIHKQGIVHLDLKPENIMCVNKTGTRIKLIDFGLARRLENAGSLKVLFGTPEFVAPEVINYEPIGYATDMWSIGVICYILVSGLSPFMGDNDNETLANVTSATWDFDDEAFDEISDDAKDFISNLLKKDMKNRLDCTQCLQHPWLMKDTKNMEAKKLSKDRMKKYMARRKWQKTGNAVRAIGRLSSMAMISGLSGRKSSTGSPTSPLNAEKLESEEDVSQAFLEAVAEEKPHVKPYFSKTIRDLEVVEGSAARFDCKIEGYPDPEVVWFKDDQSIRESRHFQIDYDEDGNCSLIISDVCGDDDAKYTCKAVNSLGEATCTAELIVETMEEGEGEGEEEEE
UniProt P62136: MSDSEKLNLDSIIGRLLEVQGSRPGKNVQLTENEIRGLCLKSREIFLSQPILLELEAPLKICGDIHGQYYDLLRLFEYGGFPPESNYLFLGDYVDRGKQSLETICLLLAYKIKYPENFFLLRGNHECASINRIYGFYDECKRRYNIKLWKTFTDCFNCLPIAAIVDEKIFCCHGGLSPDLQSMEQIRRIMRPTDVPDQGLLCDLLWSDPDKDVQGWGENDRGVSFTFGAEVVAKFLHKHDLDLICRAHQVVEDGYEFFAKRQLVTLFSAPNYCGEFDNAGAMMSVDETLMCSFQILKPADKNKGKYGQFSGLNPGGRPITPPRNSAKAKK
UniProt P67775: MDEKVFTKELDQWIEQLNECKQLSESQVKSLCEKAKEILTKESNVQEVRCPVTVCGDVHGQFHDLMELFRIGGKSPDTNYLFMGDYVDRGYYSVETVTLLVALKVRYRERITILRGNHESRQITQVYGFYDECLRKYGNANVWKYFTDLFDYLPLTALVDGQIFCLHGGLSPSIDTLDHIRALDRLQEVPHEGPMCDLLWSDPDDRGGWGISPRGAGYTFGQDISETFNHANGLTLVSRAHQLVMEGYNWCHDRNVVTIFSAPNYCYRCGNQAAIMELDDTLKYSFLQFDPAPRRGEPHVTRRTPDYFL

These are yes or no findings as the source states them, for the method shown. In cells and extracts the contact can be indirect. Some results given as binding are weak or reduced against the parent protein; the word gives no strength.

For assay [1], the target named is lymphocyte-specific protein 1 (LSP1), endogenous (human (endogenous in primary macrophages)) (UniProt P33241). Briefly: co-IP; immunoprecipitation of endogenous LSP1 or myosin IIA from macrophage lysates (500 mM NaCl, 2% Triton X-100, 50 mM Tris-HCl pH 8.0), µMACS Protein A/G Microbeads, washes with RIPA and high-salt RIPA; control IgG; western blot.
Assay [2] deals with myosin IIA, endogenous (human (endogenous in primary macrophages)) (UniProt P35579). The description is as above.
Assay [3] addresses GFP-fused full length LSP1 (human) (UniProt P33241). In words: co-IP; anti-GFP immunoprecipitation (µMACS anti-GFP Microbeads) from lysates of macrophages expressing GFP-fused constructs (500 mM NaCl, 2% Triton X-100, 50 mM Tris-HCl pH 8.0), washes with RIPA and high-salt RIPA; GFP alone as control; western blot of endogenous partners, densitometry. Background: Immunoblotting shows a protein as a band on a membrane.

In the case of “Rho kinase (ROCK) 2, endogenous (from UniProt O75116 1-1388) (enzyme)”, the binding result in assay [1] and in assay [2] was “no binding” each time.

Regarding “RhoA, endogenous (from UniProt P61586 1-193)”, the binding entry in assay [1] is “no binding”.

For “long form of myosin light chain kinase (L-MLCK), endogenous (from UniProt Q15746 1-1914) (enzyme)”, the binding result in assay [1], in assay [2] and in assay [3] was “binds” in each case.

As for “protein phosphatase (PP) 1, endogenous (from UniProt P62136 1-330) (enzyme)”, the binding entry in assay [1] and in assay [2] was “no binding” in each case.

As to “protein phosphatase (PP) 2, endogenous (from UniProt P67775 1-309) (enzyme)”, the binding result in assay [1] and in assay [2] was “no binding” in each case.
